This is an account of results in PubChem BioAssay AID1645887 (National Center for Advancing Translational Sciences (NCATS), 2021).

Values joined by “and” are separate entries in the source; they are usually repeats but may differ in a detail not shown here. Equal values may be shown once. The whole screen tested about 16,000 compounds, of which about 40 (0.2%) were called active. Another 1% or so got no clear call; they are omitted. Calls follow the shape of the dose curve; as a rule, active = well fitted activation curve with a large enough effect; inconclusive = small, poorly fitted or top-dose-only effect, or another doubt; inactive = no such curve, though single readings can be large or run the other way. The list shows a part of the results. Residues, ends and D or L forms follow the SMILES beside them.
% is scaled to controls: 0 for no effect and ±100 for the full control effect.

This assay addresses Rap guanine nucleotide exchange factor 4 (Homo sapiens) (UniProt Q8WZA2). The experiment in a line: Validation qHTS for agonist of cAMP-regulated guanine nucleotide exchange factor 4 (EPAC2).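 Also: exchange makes BODIPY-GDP fluorescence drop when released from Rap1B; series mostly up to about 150 µM.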 The conditions noted are these: EPAC2 Rap1B BODIPY-GDP exchange, fluorescence; activation: hits give high values. The method, boiled down: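 Signal normalized against 6.5 mM cAMP as agonist control. Mix of EPAC2 (100 nM), RAP1B-BODIPY-GDP (250 nM) and GDP (50 uM) was read kinetically at 480/540 nm, every 5 min over 30 min, after 5 min room-temperature incubation with compound.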
Sequence of UniProt Q8WZA2 (Q8WZA2 whole entry, looked up): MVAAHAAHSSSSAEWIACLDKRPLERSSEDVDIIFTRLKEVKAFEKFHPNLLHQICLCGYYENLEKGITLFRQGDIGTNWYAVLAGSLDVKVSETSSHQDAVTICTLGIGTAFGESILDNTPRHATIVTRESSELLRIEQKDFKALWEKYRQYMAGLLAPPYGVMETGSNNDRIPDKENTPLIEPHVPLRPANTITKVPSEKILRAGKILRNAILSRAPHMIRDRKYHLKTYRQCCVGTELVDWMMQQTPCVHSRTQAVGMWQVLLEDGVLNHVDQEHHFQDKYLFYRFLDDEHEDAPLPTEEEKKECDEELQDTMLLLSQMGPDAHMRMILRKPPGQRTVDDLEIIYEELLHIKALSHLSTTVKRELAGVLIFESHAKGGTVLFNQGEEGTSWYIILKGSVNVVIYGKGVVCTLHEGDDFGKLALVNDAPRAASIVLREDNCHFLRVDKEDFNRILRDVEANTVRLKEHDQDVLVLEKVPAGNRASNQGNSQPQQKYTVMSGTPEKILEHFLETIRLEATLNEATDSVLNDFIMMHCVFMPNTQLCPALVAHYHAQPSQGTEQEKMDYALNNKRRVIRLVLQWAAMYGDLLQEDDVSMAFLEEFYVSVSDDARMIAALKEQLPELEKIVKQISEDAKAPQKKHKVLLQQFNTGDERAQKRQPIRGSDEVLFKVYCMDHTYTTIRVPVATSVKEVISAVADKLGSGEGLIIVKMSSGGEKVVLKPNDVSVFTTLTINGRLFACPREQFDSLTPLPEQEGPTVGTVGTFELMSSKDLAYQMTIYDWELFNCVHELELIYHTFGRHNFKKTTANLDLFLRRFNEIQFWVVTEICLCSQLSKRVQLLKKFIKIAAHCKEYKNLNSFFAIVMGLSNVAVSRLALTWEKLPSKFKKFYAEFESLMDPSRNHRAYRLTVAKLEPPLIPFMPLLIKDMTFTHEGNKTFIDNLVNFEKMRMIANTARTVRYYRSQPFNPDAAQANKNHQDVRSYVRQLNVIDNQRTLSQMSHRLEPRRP
On the technique in general: qHTS replaces the single test concentration by a dilution series.
For the compound `Oc1cc2c(cc1O)[C@H]1c3ccc(O)c(O)c3OC[C@@]1(O)C2`, the activation is inactive: -7.82%.

Turning to `C=CC(N)CCC(=O)O` (centres undefined), the activation was inactive: -10.3% and inactive: -12.5% and inactive: -39.1%.

With `CCCCCCCCCCCCCCCC(=O)OC/C=C(C)/C=C/C=C(C)/C=C/C1=C(C)CCCC1(C)C`, the activation is inactive: -35.1% and inactive: -27%.

With `NS(=O)(=O)c1cc(C2(O)NC(=O)c3ccccc32)ccc1Cl` (centres undefined), the activation was inactive: -18% and inactive: -7.81%.

Turning to `CC(C)N(CCO)Cc1nc(N2CCOCC2)c2cc(Cl)ccc2n1`, the activation is inactive: -1.5%.

For the compound `COc1ccc(-c2nc3cnc(Nc4cccc(OC)c4)nc3n(C)c2=O)cc1`, the activation was inactive: 2.93%.

Regarding `COS(C)(=O)=O`, the activation was inactive: -4.11%.

As for `Cc1cc(C)nc(S[C@H]2C[C@@H](C(=O)N3CCN(c4ccccc4F)CC3)N(Cc3ccccc3F)C2)n1`, the activation was inactive: 3.12%.

With `O=C(c1ccncc1)N1CCC2(CCCN(C(c3ccccc3)c3ccccc3)C2)CC1`, the activation was inactive: -12.9%.

Turning to `COc1ccccc1CNc1ccnc(-c2ccc3c(c2)OCO3)n1`, the activation was inactive: -0.987%.

For the compound `COc1ccc(Oc2ncc3ncc(=O)n(CCC#N)c3n2)cc1`, the activation is inactive: -7.69%.

As to `COc1cc(=O)n2c(c1C(=O)N(C)Cc1nonc1C)CCN(CC1CC=CCC1)CC2` (centres undefined), the activation was inactive: -6.28%.

Turning to `Cc1ccc(C(=O)Nc2cccc(-c3nc(CNC(=O)c4ccc(F)cc4Cl)c(C)o3)c2)s1`, the activation is inactive: 3.57%.

Consider `Cc1cc(=O)c2c(O)c3c(O)cc(=O)c4c3c3c(cc(O)c1c23)C(C)(C)C=4O`, for which the activation is inactive: -27.1% and inactive: 6.87%.

Regarding `COCCn1c(=O)c(-c2cc(F)cc(F)c2)nc2cncnc21`, the activation is inactive: -12.1%.

Consider `O=c1oc2cc(O)ccc2cc1-c1ccc2c(c1)OCCO2`, for which the activation was inactive: -17.1%.

Regarding `CCN[C@H]1CN(CCCOC)S(=O)(=O)c2sc(S(N)(=O)=O)cc21`, the activation was inactive: -21.4%.

Take `Cc1ncc(C[n+]2csc(CCO)c2C)c(N)n1`: the activation was inactive: -10.5%.

Take `CC(C)c1c(C(=O)Nc2ccccc2)c(-c2ccccc2)c(-c2ccc(F)cc2)n1CC[C@@H](O)C[C@@H](O)CC(=O)O`: the activation was inactive: -32.2%.

In the case of `Cn1cccc1C(=O)N1CCC[C@@]2(CCN(c3ccncc3)C2)C1`, the activation was inactive: 2.03%.

For `O=C1c2ccccc2C(=O)C1c1ccc(F)cc1`, the activation is inactive: 7.02%.

`CC(=O)NC(CC(=O)O)C(=O)NC(CCC(=O)O)C(=O)O` (stereo not drawn) (Ac-Asp-Glu-OH; configuration not given here): the activation was inactive: -8.16%.

Regarding `CC[N+](C)(CC)CCOC(=O)C1c2ccccc2Oc2ccccc21`, the activation is inactive: -3.93%.

For `FC(F)(F)C(Cl)Br` (centres undefined), the activation is inactive: -29.1%.

For `O=C(O)CN1C(=O)c2cccc3cccc(c23)C1=O`, the activation is inactive: -24.4% and inactive: -16.5%.

`CCCCN(CCCC)CCCOC(=O)c1ccc(N)cc1`: the activation was inactive: -12.7% and inactive: -3.98%.

In the case of `c1ccc(Nc2nc(-c3cccnc3)nc3ccccc23)cc1`, the activation was inactive: -9.83%.

`Cc1ccc(C(=O)c2ccc(CC(=O)O)n2C)cc1`: the activation is inactive: 8.61% and inactive: 2.31%.

Take `C/C(=N\O)c1ccc(OCC(=O)N2CCCCC2)cc1`: the activation is inactive: 13.4%.

As for `CN(C)c1ccc(-c2nccc(Nc3ccc(F)cc3)n2)cc1`, the activation was inactive: -13.4%.

Consider `COCC(=O)N1CCC2(CC1)CN(Cc1ccccc1OC)C2`, for which the activation is inactive: -10.1%.

Consider `CN(C)Cc1ccccc1-c1cncnc1NC1CC1`, for which the activation was inactive: -17%.

In the case of `C=C1C[C@@]23C[C@@]1(O)CC[C@@H]2[C@]12C=C[C@@H](O)[C@](C)(C(=O)O1)[C@@H]2[C@@H]3C(=O)O`, the activation is inactive: 8.89%.

For `CN(C)c1ncc2nc(-c3ccccc3)c(=O)n(C)c2n1`, the activation is inactive: -2.92%.

For the compound `CC(C)c1cc(/C=C(\C#N)C(=O)NCCCc2ccccc2)cc(C(C)C)c1O`, the activation was inactive: 13.7%.

Take `O=C(O)[C@H]1[C@H]2C[C@H]3c4[nH]c5ccccc5c4CCN3C[C@@H]2CC[C@@H]1O`: the activation is inactive: 0.149%.

With `CC(O)CN(CCN(CC(C)O)CC(C)O)CC(C)O` (centres undefined), the activation is inactive: -5.22%.

As to `O=C(O)CCCCCCCC(=O)O`, the activation is inactive: -8.94% and inactive: 11.1% and inactive: 6.57%.

As to `O=C(CCCN1CCN2CCCC2C1)c1ccc(F)cc1` (centres undefined), the activation was inactive: -0.367%.

Consider `CCCCCCCCCCCCCCCCCCNC(=O)OC1CCN(C(=O)OC[C@H](COC(=O)N(Cc2cccc[n+]2CC)C(=O)c2ccccc2OC)OC)CC1`, for which the activation was inactive: 11%.

On to `CC12CCC3C(CC3(C)C)C(C)(CCC1=O)O2` (centres undefined), for which the activation is inactive: -7.07%.

As for `CC1CN(Cc2cccn2-c2cccnc2)Cc2cc(Cl)ccc2O1` (centres undefined), the activation was inactive: -1.89%.

Turning to `Cc1noc(C)c1C(=O)N1CCC2(CC1)CCN(c1ncccn1)CC2`, the activation was inactive: -20.9%.

With `COCC(=O)N1CCC2(CCCN(C(c3ccccc3)c3ccccc3)C2)CC1`, the activation was inactive: -5.39%.

Take `Cn1c(=O)c(-c2cccc(F)c2)nc2cncnc21`: the activation is inactive: -0.659%.

`CCCCCCCCCC(=O)O[C@H](CC(=O)O)C[N+](C)(C)C`: the activation was inactive: -7.29%.

As to `COC(=O)C[C@H]1c2cc(C(F)(F)F)ccc2S(=O)(=O)N1c1ccc(N(C)C)cc1`, the activation was inactive: -28.3%.

For `NC1(C(=O)O)CCCCC1`, the activation is inactive: -8.07%.

Turning to `CC(=O)C1(C)CC2(CC(C)(C)OC2=O)C(=O)O1` (centres undefined), the activation is inactive: -5.92%.

For the compound `COc1ccccc1CNc1ncncc1-c1ccc(N(C)C)cc1`, the activation was inactive: -12%.

Regarding `CCNC(=O)NCCCOc1cccc(CN2CCCCC2)c1`, the activation is inactive: -1.5%.

With `COc1ccc(-c2ccc(N)[n+](CCCC(=O)O)n2)cc1`, the activation was inactive: -8.16%.

Take `CN1CCN(c2ncc3nc(-c4cccc(C#N)c4)c(=O)n(CCC#N)c3n2)CC1`: the activation was inactive: -10.7%.

Turning to `CCCCCCCCCCCCCCCC(=O)OC(C)C`, the activation was inactive: -30.5%.

With `COc1ccc(CNc2ccnc(-c3c(C)noc3C)n2)c(OC)c1`, the activation was inactive: 0.299%.

Consider `O=C1C[C@@H]2c3c(cccc3CN1Cc1ccc(F)cc1)C[C@@H](O)[C@H]2O`, for which the activation was inactive: -11.9%.

In the case of `CO[C@H]1C=CO[C@@]2(C)Oc3c(C)c(O)c4c(O)c(c5c(c4c3C2=O)=NC2(CCN(CC(C)C)CC2)N=5)NC(=O)/C(C)=C\C=C/[C@H](C)[C@H](O)[C@@H](C)[C@@H](O)[C@@H](C)[C@H](OC(C)=O)[C@@H]1C`, the activation is inactive: 5.91%.

For the compound `O=C(c1cnccn1)N1CCC2(CC1)CN(c1ccccn1)C2`, the activation was inactive: -13.1%.

For `COc1cccc(C(=O)O[C@H]2[C@H](C)NS(=O)(=O)[C@H]3C[C@@H]4C=C[C@]23O4)c1`, the activation is inactive: -7.64%.

In the case of `NNCCc1ccccc1`, the activation was inactive: 7.25% and inactive: 11.6% and inactive: 1.52%.

As to `O=C(Oc1ccccc1)N1CCC[C@@]2(CCN(c3ncccn3)C2)C1`, the activation is inactive: -23.8%.

For `CC(C)(C)c1ccc(S(=O)(=O)N[C@H]2CC[C@@H](n3cc(C(=O)N4CCCC4)nn3)CC2)cc1`, the activation is inactive: -21.1%.

As for `O=c1c(-c2ccc(Cl)cc2)nc2cncnc2n1Cc1ccccc1`, the activation is inactive: -2.96%.

Regarding `Cc1ccc(C)c(CN2CCc3nnc(CNC(=O)c4cc(C)oc4C)n3CC2)c1`, the activation is inactive: -15.2%.

Take `COc1cc(/C=C/C(=O)O[C@H]2CC[C@]34C[C@]35CC[C@]3(C)[C@@H]([C@H](C)CCC=C(C)C)CC[C@@]3(C)[C@@H]5CC[C@H]4C2(C)C)ccc1O`: the activation was inactive: -16.4% and inactive: -25.7%.

For the compound `COc1cccc(C2(CC(=O)N3CCN(c4nonc4C)CC3)CC(=O)N(C3CCCC3)C2=O)c1` (centres undefined), the activation is inactive: -6.59%.

As to `CC(=O)NCCNc1ncnc2ccc(-c3ccc(C(=O)N(C)C)cc3)cc12`, the activation is inactive: -10.2%.

As for `CC(NC(=O)c1cc(F)ccc1F)c1nnc2n1CCN(Cc1cccs1)CC2` (centres undefined), the activation was inactive: -10.4%.

Turning to `COc1ccccc1-c1oc2ccccc2c(=O)c1OC`, the activation is inactive: 5.99%.

Turning to `CCCc1cc(C(N)=S)ccn1`, the activation was inactive: -2.95%.

With `FC(F)(F)c1ccccc1-c1ccc2ncnc(NC3CC3)c2c1`, the activation is inactive: -23.9%.

`COCCn1c(=O)c(-c2ccc(OC)cc2)nc2cnc(Oc3ccc(OC)cc3)nc21`: the activation is inactive: -8.43%.

As for `Cc1ccc2c(c1)CN(CCNC(=O)c1n[nH]c3c1CCCC3)CC(C)O2` (centres undefined), the activation was inactive: -0.602%.

On to `CC(=O)S[C@@H]1CC2=CC(=O)CC[C@]2(C)[C@H]2CC[C@@]3(C)[C@@H](CC[C@@]34CCC(=O)O4)[C@H]12`, for which the activation was inactive: 10.3%.

As for `CSc1nccc(-c2cc(Cl)c3c(c2)CC(CNC(=O)c2ccc(C)nc2)O3)n1` (centres undefined), the activation was inactive: -16.6%.

As to `CN(C)c1ccc(-c2cncnc2NCCc2cnc[nH]2)cc1`, the activation was inactive: 6.52%.

Take `COc1cccc(OC)c1OCCNC[C@@H]1COc2ccccc2O1`: the activation is inactive: -15.5%.

Regarding `COc1ccc(Oc2ncc3nc(-c4ccccc4)c(=O)n(C4CC4)c3n2)cc1`, the activation is inactive: -3.64%.

On to `CC(Cc1cccc(C(F)(F)F)c1)NCCOC(=O)c1ccccc1` (centres undefined), for which the activation was inactive: -27.2%.

`Cc1cc(C(=O)O)ccc1[C@H](N)C(=O)O`: the activation was inactive: -12.3%.

In the case of `COc1cccc(Cn2c(=O)c(-c3ccccc3)nc3cnc(OC)nc32)c1`, the activation was inactive: 2.52%.

Consider `CCCCC/C=C\C/C=C\C/C=C\C/C=C\CCCCCC(=O)O`, for which the activation was inactive: -10.9%.

As for `O=C(/C=C/c1ccc(O)c(O)c1)OC(Cc1ccc(O)c(O)c1)C(=O)O` (centres undefined), the activation was inactive: -6.27% and inactive: 10.4%.

Regarding `COc1ccccc1-c1ccc2ncnc(NCc3cccnc3)c2c1`, the activation was inactive: -18%.
